Results published in the supplement of paper PMC3334620.
In all, about 33,000 sequences were measured (“E-score (-0.5 to 0.5)”: median about -0.036, highest 2% from about 0.37 on). The list shows a part of the results.

What follows are sequences tested against T1, Yer064c (UniProt P40041) (assay: PBM E-score (8-mer binding enrichment) (E-score (-0.5 to 0.5)); higher = stronger / more preferred TF binding; most listed sequences are background and not binding sites). Conditions: protein concentration: 200 nM; construct: GST-full length.
T1 sequence: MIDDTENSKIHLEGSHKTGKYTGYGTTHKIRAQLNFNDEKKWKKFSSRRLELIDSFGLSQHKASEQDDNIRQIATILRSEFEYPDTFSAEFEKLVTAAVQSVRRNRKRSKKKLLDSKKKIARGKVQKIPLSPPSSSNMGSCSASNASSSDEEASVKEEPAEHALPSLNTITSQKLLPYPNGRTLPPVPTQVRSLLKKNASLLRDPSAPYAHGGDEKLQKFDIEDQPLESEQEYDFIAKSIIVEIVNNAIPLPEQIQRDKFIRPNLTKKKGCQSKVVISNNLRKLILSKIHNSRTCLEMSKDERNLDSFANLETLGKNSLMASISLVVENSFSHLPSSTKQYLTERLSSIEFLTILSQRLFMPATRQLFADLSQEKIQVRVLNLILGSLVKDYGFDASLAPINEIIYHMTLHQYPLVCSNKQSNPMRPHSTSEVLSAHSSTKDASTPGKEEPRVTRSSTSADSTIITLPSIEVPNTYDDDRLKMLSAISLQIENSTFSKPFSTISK
In short: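 Full-length yeast transcription factors or their DNA-binding domains, GST-tagged and expressed with PURExpress, were applied at about 100-200 nM to universal all-10-mer Agilent arrays. These arrays had been made double-stranded by primer extension on fresh or once-stripped slides. Detection used fluorescent anti-GST, normalisation used masliner, and E-scores for ungapped eight-base words pooled with reverse complements came from the Universal PBM Analysis Suite.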

| Sequence | PBM E-score |
| --- | --- |
| ATTCCCCC | -0.179 |
| ATCTCGTG | 0.0462 |
| ATCACTCC | 0.194 |
| ATACGCAG | 0.0109 |
| CACGCCCC | -0.154 |
| GAGCTGGA | -0.0882 |
| GCCAACAC | 0.0868 |
| GTGCAGTA | -0.107 |
| CAATCTTC | 0.19 |
| AGTAAATA | 0.0177 |
| AACGACCG | -0.125 |
| AGATAGCG | -0.125 |
| ATCTCTGC | -0.022 |
| CGACGCTC | 0.0634 |
| AGGTTGTC | -0.211 |
| GTTTGCAA | 0.195 |
| CTACGAGC | -0.0131 |
| CCTAGTCG | 0.263 |
| CTGGGCCC | -0.31 |
| CTGCACAC | -0.173 |
| ACTCAAGA | 0.3 |
| ATATTTTC | -0.0776 |
| AAGGCCTC | -0.0997 |
| ACGCTGTC | -0.181 |
| CGATTCGA | 0.0503 |

| Sequence | PBM E-score |
| --- | --- |
| CCGCGCAA | -0.0599 |
| ACACTAGT | 0.126 |
| AATGCCCC | -0.226 |
| TAACGCTA | -0.0624 |
| AACCTGTG | 0.0664 |
| AATTGGGA | -0.181 |
| ATGGCTTG | -0.159 |
| ATTTACTG | 0.0929 |
| AACAATGT | -0.0664 |
| CACTCTGG | -0.166 |
| AGCCAATA | 0.0024 |
| GAGAAGGC | -0.344 |
| AAATAGTC | 0.382 |
| CACTCCCC | -0.147 |
| CCATGGGG | -0.124 |
| GGAATCTA | -0.134 |
| CGAGGTGA | 0.0922 |
| GACCGCCA | -0.188 |
| AACTTGGG | -0.0983 |
| AAGCTCGC | -0.0454 |
| CGTGAGTA | 0.323 |
| ATGATCTC | 0.118 |
| CAACCGCA | -0.0533 |
| CACCACCC | -0.077 |
| CGTACTTA | -0.00347 |

| Sequence | PBM E-score |
| --- | --- |
| AGCGCTGG | 0.0943 |
| AATCCATT | 0.221 |
| AACTTCCA | -0.0543 |
| AGGCCGAT | -0.0563 |
| GATGCAGC | -0.253 |
| ATACATCC | -0.162 |
| CAATTTCC | -0.112 |
| CAACTAGG | 0.0954 |
| CTCCCTGA | 0.0469 |
| ATATTGAG | 0.198 |
| AAGCTAAC | 0.0575 |
| AGACCCAT | 0.0625 |
| ACGGAGAA | -0.162 |
| CCGTCTTC | -0.154 |
| AATTGCCT | -0.0277 |
| CACCAAAG | -0.0275 |
| CTACCTGA | 0.214 |
| ATGAACCC | -0.026 |
| GGTGCAGA | -0.143 |
| CGGGAGCA | -0.213 |
| CACTTTGC | 0.0624 |
| GCAGCAAC | -0.0574 |
| TATGTCCA | -0.238 |
| CATTACTA | 0.0127 |
| GAGGGGGC | -0.337 |

| Sequence | PBM E-score |
| --- | --- |
| ATACGCCC | -0.142 |
| ATCCACGA | 0.0848 |
| CAAGCAGC | -0.194 |
| AGGTTCTA | -0.212 |
| ATGTTCAG | -0.118 |
| ACAAGAGT | 0.149 |
| ATAAGAAG | -0.0359 |
| CTGACACA | 0.119 |
| CACTGTAA | 0.102 |
| AGCAACAG | -0.261 |
| CGCGTCTA | -0.228 |
| GCTCCGGA | -0.324 |
| ACGGTCTA | -0.106 |
| TGCTTACA | 0.0748 |
| GCACGGAC | -0.225 |
| ACGTATTG | -0.0591 |
| AGACCCCA | -0.174 |
| ACCGGAGG | -0.294 |
| ACGGATCG | -0.0973 |
| ACAGAGGA | -0.129 |
| ATGAGACG | 0.0866 |
| TGAGCCCA | -0.021 |
| AGGATCGG | -0.209 |
| AGACCCGC | -0.156 |
| GATCAGCA | 0.0466 |

| Sequence | PBM E-score |
| --- | --- |
| TAAATCAA | 0.236 |
| CAGTTCGC | 0.0152 |
| GAAATCAA | 0.0858 |
| AATAAAGC | -0.0941 |
| CATATTGG | -0.027 |
| CTTGGCGC | -0.0911 |
| CGATAGAA | -0.145 |
| ACGACGGA | -0.109 |
| CAGGGAGA | -0.0256 |
| TACCTCTA | -0.00282 |
| CTCCGAGA | -0.0556 |
| AAGTTGGG | -0.113 |
| AACTCTGC | 0.0728 |
| ATTTCGCG | 0.0653 |
| GGAAACTA | 0.0413 |
| ATTTCAAC | -0.0239 |
| CGAGGCAG | -0.189 |
| TCATGCGA | 0.285 |
| ATTCGTTC | -0.0142 |
| GAAAACTC | -0.164 |
| CTGAGATC | -0.0614 |
| AGAAGGAC | 0.033 |
| ATCTGAGC | 0.0723 |
| GGCCCGCC | -0.323 |
| CAGTCTTA | 0.278 |

| Sequence | PBM E-score |
| --- | --- |
| GTTCATTA | -0.0225 |
| GTTTAGAA | -0.0338 |
| GAGACCCA | -0.0361 |
| ACCAGGTG | -0.134 |
| AACTAAGC | 0.0808 |
| CATTGCTC | -0.115 |
| GAAAATAA | 0.133 |
| CCACAGGG | -0.0842 |
| CTGGCGAA | 0.102 |
| AAGTCGAG | -0.16 |
| AGAAGGTA | -0.075 |
| AGTTGAGC | -0.0945 |
| CCTATGAC | 0.235 |
| CGTGGTCC | -0.0172 |
| ATCAGTGA | 0.187 |
| GGAGTTAA | 0.179 |
| AAAATGCT | -0.105 |
| CGATGTCC | -0.28 |
| CACGTCAG | -0.0619 |
| ATAACTAA | 0.16 |
| ATGTTTAC | 0.0611 |
| ACTGGTCC | -0.143 |
| CGTAGGAG | -0.156 |
| TCCATCAA | 0.105 |
| GGAGGTGA | 0.157 |

| Sequence | PBM E-score |
| --- | --- |
| AAACCTTG | 0.033 |
| GGCATTAA | -0.11 |
| GGCTGCAC | -0.0499 |
| GATGCTTA | -0.252 |
| AGTCAACC | 0.442 |
| GCGCAGAA | -0.0381 |
| AAGTATCT | 0.0137 |
| CGCTCAAC | 0.0366 |
| AGCAGGAT | -0.127 |
| ACCCCCGC | -0.252 |
| ACATTCGA | 0.0721 |
| ATAATAAT | 0.0393 |
| GTTGGGAA | -0.144 |
| GAACAGAC | -0.0212 |
| AGCCGGGC | -0.283 |
| GGGATATA | -0.188 |
| GAGCAGGC | -0.327 |
| TAGGCCAA | -0.0706 |
| ATCATAAG | 0.335 |
| AGCCCCGA | -0.136 |
| ATTCGATC | 0.0729 |
| GTGGGTAA | 0.146 |
